Our source for the binding values is publication PMC9839372.

Chains of the proteins cited; added tags and fusions are not shown. Lines headed by an entry give the natural chain unless they say otherwise; changes in a name come on top. A line that says so, or that is headed by a name, gives the form on record, which may keep a tag or linker. Residues count along the entry.
GFP-tagged PRR14 (1-212) wild-type fragment (Q9BWN1, residues 1-212): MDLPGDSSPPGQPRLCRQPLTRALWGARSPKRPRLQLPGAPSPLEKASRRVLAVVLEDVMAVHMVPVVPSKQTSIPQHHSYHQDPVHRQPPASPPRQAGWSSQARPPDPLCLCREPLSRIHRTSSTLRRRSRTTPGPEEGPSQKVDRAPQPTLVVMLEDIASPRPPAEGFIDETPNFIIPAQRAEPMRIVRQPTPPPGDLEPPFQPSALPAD
GFP-tagged PRR14 (1-212) HP1-binding site 2 mutant (154-155EE) (Q9BWN1, form named): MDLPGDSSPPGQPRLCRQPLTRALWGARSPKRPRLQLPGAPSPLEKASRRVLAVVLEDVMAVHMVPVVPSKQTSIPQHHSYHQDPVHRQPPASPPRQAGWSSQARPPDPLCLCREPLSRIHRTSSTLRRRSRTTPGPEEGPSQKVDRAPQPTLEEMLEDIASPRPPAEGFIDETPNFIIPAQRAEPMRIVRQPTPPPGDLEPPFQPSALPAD
GFP-tagged PRR14 (1-212) double mutant (54-55EE and 154-155EE) (Q9BWN1, form named): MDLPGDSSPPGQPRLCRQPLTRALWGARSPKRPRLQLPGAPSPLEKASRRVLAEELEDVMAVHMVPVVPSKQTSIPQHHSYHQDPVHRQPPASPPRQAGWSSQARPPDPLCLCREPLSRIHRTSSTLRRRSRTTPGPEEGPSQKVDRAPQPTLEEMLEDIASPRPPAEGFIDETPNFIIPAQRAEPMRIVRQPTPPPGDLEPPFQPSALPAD
GFP-tagged PRR14 (1-212) HP1-binding site 1 mutant (54-55EE) (Q9BWN1, form named): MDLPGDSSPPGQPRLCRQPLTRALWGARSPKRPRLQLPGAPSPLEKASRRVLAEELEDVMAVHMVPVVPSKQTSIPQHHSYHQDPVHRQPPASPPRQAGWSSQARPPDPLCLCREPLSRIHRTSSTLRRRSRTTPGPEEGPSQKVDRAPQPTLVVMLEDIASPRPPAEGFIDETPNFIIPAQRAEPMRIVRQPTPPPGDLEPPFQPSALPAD
UniProt P45973: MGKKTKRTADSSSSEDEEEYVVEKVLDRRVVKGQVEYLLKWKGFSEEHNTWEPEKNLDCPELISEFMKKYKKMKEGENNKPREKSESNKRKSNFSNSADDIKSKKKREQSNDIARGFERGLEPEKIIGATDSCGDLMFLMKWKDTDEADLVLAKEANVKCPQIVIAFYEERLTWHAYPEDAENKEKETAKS
UniProt P83916: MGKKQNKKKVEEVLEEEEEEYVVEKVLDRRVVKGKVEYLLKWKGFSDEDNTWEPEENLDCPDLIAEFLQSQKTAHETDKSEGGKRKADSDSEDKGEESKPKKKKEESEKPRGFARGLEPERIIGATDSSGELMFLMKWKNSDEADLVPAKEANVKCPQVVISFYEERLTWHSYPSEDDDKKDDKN
UniProt Q13185: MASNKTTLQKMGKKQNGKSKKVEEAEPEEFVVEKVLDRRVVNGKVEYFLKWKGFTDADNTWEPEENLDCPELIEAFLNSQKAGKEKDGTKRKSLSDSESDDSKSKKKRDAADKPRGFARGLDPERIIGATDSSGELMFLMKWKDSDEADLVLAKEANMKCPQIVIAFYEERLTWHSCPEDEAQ

No constants are given. Whether binding was seen depends on the method and setting. Binding seen in cells or lysates may run through a third protein. Some entries that bind do so weakly or less than the wild type.

Assay in all cases: co-IP; GFP-PRR14 (1-212) constructs precipitated from Lenti-X 293T lysates (NP-40 lysis buffer with protease and phosphatase inhibitors and benzonase) with anti-GFP antibody on Protein A/G magnetic beads, 2.5 hours at +4°C; Western blot for HP1 isoforms; Normal Rabbit IgG as mock
For orientation: In western blotting, separated proteins are transferred to a membrane and probed.

Experiment [1] has as its target GFP-tagged PRR14 (1-212) HP1-binding site 2 mutant (154-155EE) (human) (UniProt Q9BWN1).
The target in experiment [2] is GFP-tagged PRR14 (1-212) wild-type fragment (human) (UniProt Q9BWN1).
Experiment [3] has as its target GFP-tagged PRR14 (1-212) double mutant (54-55EE and 154-155EE) (human) (UniProt Q9BWN1).
For experiment [4], the target named is GFP-tagged PRR14 (1-212) HP1-binding site 1 mutant (54-55EE) (human) (UniProt Q9BWN1).

Turning to “Heterochromatin Protein 1 alpha (HP1α) (from UniProt P45973 1-191)”, the binding result in experiment [1] is recorded as “binds”; in experiment [2], “binds”; in experiment [3], “no binding”.
For the substance “Heterochromatin Protein 1 beta (HP1β) (from UniProt P83916 1-185)”, the binding result in experiment [1] was “binds”; in experiment [2], “binds”; in experiment [3], “no binding”.
In the case of “Heterochromatin Protein 1 gamma (HP1γ) (from UniProt Q13185 1-183)”, the binding entry is on record as “binds” in experiment [1], “binds” in experiment [2], “no binding” in experiment [3] and “binds weakly” in experiment [4].
